Data from PubChem BioAssay (NCI).
“And” between values parts separate entries of the source, which are not always exact repeats. Equal values may be shown once.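 Assay format: 96-well plates, 48-hour exposure. GI50 marks 50% less growth. TGI is the concentration that stops growth completely.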

What follows are compounds tested on NCI-H322M lung (assay: DTP human tumour cell line panel, 48 h).

Structure (SMILES) | TGI | GI50
C[C@@H]1CC(=O)C[C@@H]2CC[C@H]3[C@@H]4CC[C@H](OC(=O)c5cccc6cc7ccccc7nc56)[C@H]4CC[C@@H]3[C@H]21 | > 100 µM | –
CCOC(=O)Nc1cc2ccccc2c(N=Nc2ccccc2)c1O | > 100 µM | –
CC(=O)OCC1OC(n2c(S)c(C#N)c(-c3ccccc3)c(C#N)c2=O)C(OC(C)=O)C(OC(C)=O)C1OC(C)=O (stereo not drawn) | > 100 µM | > 100 µM and 34.6 µM
O=c1c2cc3c(cc2c2cccc4c2n1CCC4)OCO3 | > 100 µM | –
O=C1CC/C(=C/COc2cc(=O)oc3ccccc23)O1 | 41.7 µM | 14.6 µM
OC1COC2CC(Nc3ccccn3)OC12 (stereo not drawn) | > 100 µM | –
CCCCCCCCCCCc1c(O)c(=O)c2c(oc3c(=O)c(CCCCCCCCCCC)c(O)c(=O)c3n2-c2ccc(N(C)C)cc2)c1=O | 91.4 µM | –
c1ccc(OCc2nnc3n2N=C(c2ccccc2)CS3)cc1 | > 100 µM | –
COc1ccccc1C(=O)NCC1CCCN2CCCCC12 (stereo not drawn) | > 100 µM | –
C=C=CC(NC(=O)c1ccccc1)(C(=O)O)C(F)(F)F (stereo not drawn) | > 100 µM | –
COc1cc(Cl)cc(-c2nn(-c3cccc(NC(=O)Nc4ccc(Cl)c(Cl)c4)c3)cc2-c2ccncc2)c1 | > 100 µM | 3.28 µM
COc1ccccc1C1(c2c(OC)c(=O)c2=O)SCCCS1 | > 100 µM | –
NC(=S)N1N=C2c3ccccc3CC[C@H]2[C@@H]1c1ccc(Cl)cc1 | > 100 µM | –
C/C(=N\NC(=S)N1CCCCCC1)c1cccc2cccnc12 | > 67 µM | –
O=C(Nc1ccc(S(=O)(=O)/N=c2\ncccn2C(=O)C(C(F)(F)F)C(F)(F)F)cc1)C(C(F)(F)F)C(F)(F)F | > 100 µM | –
COC1C(N(C)C)=C(c2ccccc2)C(=O)N2CCc3ccccc3C12 (stereo not drawn) | > 100 µM | –
Cc1cccc(CC(Cc2ccc(C)cc2C(=O)O)C(=O)O)c1 (stereo not drawn) | > 100 µM | –
O=C(Cn1c(C(=O)c2ccccc2)nc2ccccc21)c1ccccc1 | > 100 µM | –
O=C(CC1C=Cc2ccccc2N1C(=O)c1ccccc1)c1ccccc1 (stereo not drawn) | 72.2 µM | –
Cc1ccc(NC(=O)CCc2n[nH]c(=S)o2)cc1 | > 100 µM | –
CC(=O)OCC1OC(n2c(Br)nc3c2c(=O)n(C)c(=O)n3C)C(OC(C)=O)C1OC(C)=O (stereo not drawn) | > 100 µM | –
COc1cnc2c(c1)C(=O)c1c-2n(CCCN2CCC(O)CC2)c(=O)c2cc(Cl)ccc12 | 3.68 µM | 1.28 µM
CCn1c2ccccc2c2c(-c3ccccc3)cc3c(c21)C(=O)N(c1ccccc1)C3=O | > 100 µM | –
COC(=O)Cc1cc(=O)[nH]c2c1C(=O)CCC2 | > 100 µM | –

Structure (SMILES) | TGI | GI50
CCOC(=O)/C=C(\C(=O)OCC)n1cc(C)c(=O)n(Cc2cnnn2COCCOC(C)=O)c1=O | > 73.8 µM | –
COC(=O)c1cc(OC)c(OC)c(OC)c1-c1cc2c(cc1C=O)OCO2 | > 10 µM | –
O=C1N(Cc2ccccc2Cl)c2ccccc2C12NN=C(c1cccc(Cl)c1)S2 (stereo not drawn) | 3.13 µM | 1.57 µM
CC1OC(CC(=O)O)CC2=C1C(=O)c1c(O)cccc1C2=O (stereo not drawn) | 3.02 µM | –
Cc1nc2ccccc2nc1N=Nc1ccccc1 | > 100 µM | 30.9 µM
Cc1cccc(N2C(=O)C3c4[nH]c5ccc(C)cc5c4C4CCC(C(C)(C)C)CC4C3C2=O)c1 (stereo not drawn) | > 100 µM | –
CC(=O)Nc1n[n+]([O-])c2cc(C)ccc2[n+]1[O-] | 27.6 µM | –
N#Cc1cccc(C=NC23CC4CC(CC(C4)C2)C3)c1 | > 100 µM | –
Cc1ccc(C2(c3ccc(F)cc3)OC(=O)c3ccccc32)c(O)c1 (stereo not drawn) | 26.2 µM | –
CCC(C)C1=C(O)[N+]2([O-])Oc3ccc(-c4c(O)c(O)c(-c5ccc(OC(C)=O)cc5)c(OC(C)=O)c4OC(C)=O)cc3OC2(C(C)CC)C(=O)N1O (stereo not drawn) | > 50 µM | –
O=C(NCCCl)SCCO | > 100 µM | –
CCCCOC1OC(COC(=O)C(C)C)C(OC(=O)C(C)C)C(O)C1OC1OC(C)C(OC(=O)CCC)C(OC(=O)C(C)C)C1O (stereo not drawn) | 28.2 µM | 13.8 µM
CC(=O)c1ccc(NC(=O)COC(=O)c2cccc3c(=O)c4ccccc4[nH]c23)cc1 | > 100 µM | –
O=C(O)[C@H](CCC[C@H]1C(=O)O[C@H](c2ccccc2)[C@H](c2ccccc2)N1C(=O)OCc1ccccc1)N[C@@H](c1ccccc1)[C@H](O)c1ccccc1 | 97.2 µM | –
O=[N+]([O-])c1cc2no[n+]([O-])c2cc1N1CCCCC1 | 28.6 µM | –
COc1ccc(-c2c3c(nc4n[nH]c(-c5ccc(Cl)cc5)c24)-c2ccccc2C(=O)C3=O)cc1 | 10.1 µM | 2.47 µM
COc1ccc2c(c1)-c1nn(CCCN(C)C)c3ccc([N+](=O)[O-])c(c13)N2 | 2.64 µM and 3.93 µM | –
COc1ccc(NCC(=O)Nn2c(-c3ccccc3)nc3ccccc3c2=O)cc1 | > 100 µM | –
O=C1CSC(c2ccc(Cl)cc2Cl)N1c1ccc(Oc2ccc(Cl)cc2)c(Cl)c1 (stereo not drawn) | 98.3 µM | –
CC12CCC(CC1)C(C)(C)O2 | 92.9 µM | –
COc1cc2c(/C=C3/C(=O)N(C)c4ccc(O)cc43)c(Cl)[nH]c2cc1C | 22.4 µM | –
COc1cc(C(C)O)c[n+](CCC2CNc3ccccc32)c1 (stereo not drawn) | > 100 µM | –
CN(C)c1ccc(/C=N/S(=O)(=O)c2ccc(-n3c(-c4ccccc4)nc4c(Br)cc(Br)cc4c3=O)cc2)cc1 | > 100 µM | 48.9 µM
CC([O-])=C1C(=O)c2ccccc2C1=O.CC([O-])=C1C(=O)c2ccccc2C1=O.CC[O-].CC[O-].[Ti+4] | > 100 µM | > 100 µM

Structure (SMILES) | TGI | GI50
C[C@]12CC(c3ccccc3O1)C(C(=O)Nc1nc(C34CC5CC(CC(C5)C3)C4)cs1)C(=O)N2 (stereo partly drawn) | > 100 µM | –
C#CCN(Cc1ccc2nc(-c3ccccc3)c(N)nc2c1)c1cc(OC)c(OC)c(OC)c1 | > 100 µM | –
CC(=O)OC1=CC2(OC(C)=O)CC(C)(C)C1C1C(=O)C=CC(=O)C12 (stereo not drawn) | > 100 µM | –
COC(=O)C(C(=O)OC)C(Br)C(Br)C(Br)c1ccccc1 (stereo not drawn) | 32 µM | 16.5 µM
O=c1[nH]cnc2c(COCCO)c[nH]c12 | > 100 µM | –
Cc1cc(S(=O)(=O)Nc2n[nH]c(N)n2)c(Cl)cc1Cl | > 10 µM | –
c1ccc2c(c1)cc1n2CCc2c-1[nH]c1ccccc21 | > 10 µM | –
C=C1C(=O)O[C@H]2C[C@@H]1[C@@H](O)[C@H](O)[C@@H](C)CCCC(C)=CCC[C@@]2(C)O | > 100 µM | –
C=Cn1c([N+](=O)[O-])cnc1/C=C/c1ccc(C(=O)OCCN2CCOCC2)cc1 | > 100 µM | –
COc1ccc(CCN2CCC(CN(C)Cc3cnn(-c4ccccc4)c3)CC2)cc1 | 45.8 µM | 16.3 µM
O=C1CN(c2cccc(Cl)c2)C(=O)CN1NCNN1CC(=O)N(c2cccc(Cl)c2)CC1=O | > 100 µM | –
O=C1OC(=O)C2C3C=CC(C12)C1C2C=CC2C31 (stereo not drawn) | > 100 µM | –
COc1cc2c(c(OC)c1OC)-c1ccc(N=NC(N)=S)c(=O)cc1[C@@H](NC(C)=O)CC2 | > 100 µM | 0.434 µM
CN(C)c1ccc(/C=C/c2sc3ccccc3[n+]2C)cc1 | 31.1 µM and 36.8 µM | –
C/C(N=NS(=O)(=O)c1ccc([N+](=O)[O-])cc1)=C1\C=CC=CN1O | > 100 µM | –
C#CC(O)/C=C/CCCCCCC#CC/C=C\CC#CCCCCCCCCC(O)C#C (stereo not drawn) | 28.4 µM | –
CCC(C)C(=O)OCC(=O)c1ccc(-c2ccccc2)cc1 (stereo not drawn) | > 100 µM | –
O=C(O)c1c(Br)c(Br)c(Br)c(Br)c1C1c2ccc(O)cc2Oc2cc(O)ccc21 | > 100 µM | –
Cn1cc(S(=O)(=O)NC(=O)Nc2ccc(Cl)cc2)c(=O)c2ccc(F)cc21 | > 100 µM | –
CC(C)(C)OC(=O)NCc1cccc(N=C=S)c1 | 39.1 µM | 16.9 µM
Brc1cccc(C2ON=C(c3ccccc3)N2C23CC4CC(CC(C4)C2)C3)c1 (stereo not drawn) | > 10 µM | –
CCSC[C@@H]1C[C@](O)(c2ccc(F)cc2)[C@@H](c2ccc(F)cc2)O1 | 39.4 µM | 20.4 µM
Nc1nc(N)c2nc3c(nc2n1)CCCCCCCCCC3 | > 100 µM | 0.827 µM
Cc1c2c(n(CC(c3ccccc3)c3ccccc3)c1C)NN=C(C#N)S2(=O)=O | > 100 µM | –

Structure (SMILES) | TGI | GI50
COCCOCCOCc1n(Cc2ccc3ccccc3n2)c2ccccc2[n+]1Cc1ccc2ccccc2n1 | 37.7 µM | 3.91 µM
N#CC(C#N)=C/C=C(\Sc1ccc(F)cc1Cl)c1ccc(Cl)cc1 | 8.76 µM | 2.85 µM
COc1ccc(-c2csc(NC(=O)CN3CCN(c4cc5c(cc4F)c(=O)c(C(=O)O)cn5C4CC4)CC3)n2)cc1 | > 100 µM | 3.72 µM
O=C1c2cccnc2C(=O)c2c1c(C(=O)OCCCN1CCCCC1)c1ccccn21 | 1.62 µM | < 0.0118 µM
CCOC(=O)C1(C#N)CC1 | > 100 µM | –
O=C(CCCN1CCC(C(O)c2ccc(F)cc2)CC1)c1ccc(F)cc1 (stereo not drawn) | 94.1 µM | –
NC(CSSCC(N)C(=O)O)C(=O)O (stereo not drawn) | > 100 µM | > 100 µM
Cn1cc(C2=C(Nc3ccccc3)C(=O)NC2=O)c2ccccc21 | > 25 µM | > 25 µM
C(#CP(c1ccccc1)c1ccccc1)P(C#CP(c1ccccc1)c1ccccc1)c1ccccc1 | > 100 µM | –
COc1cc(C)c2sc3ccccc3c(=O)c2c1NCCN(C)C | 21.2 µM | 8.51 µM
Cc1ccc(S(=O)(=O)N/N=C/C(C)C)cc1 | > 100 µM | –
CC1SC2(CCCCC2)N(NC(=O)c2[nH]c3ccc(Br)cc3c2-c2ccccc2)C1=O (stereo not drawn) | > 100 µM | 51.2 µM
C/C(=N\Nc1nc2ccccc2s1)c1cc2ccccc2cn1 | 55.5 µM | –
Cc1c2c(c(C)c3c1[nH]c1ccccc13)CN(C)CC2 | 49.7 µM | –
CC(=O)NC1=NC(=O)/C(=C/c2ccc(/C=C3/C(=O)N=C(NC(C)=O)N3C)cc2)N1C | > 100 µM | –
CCCCNc1ccc(Nc2ccccc2)cc1 | > 100 µM | 23.1 µM
CC(C)C1=CC(=O)[C@@](C)(C2[C@H](O)C[C@@]3(C)[C@@H]4CC=C5[C@@H](CC[C@@H](OC6OCC(O)C(O)C6OC6OC(C)C(O)C(O)C6O)C5(C)C)[C@]4(C)C(=O)C[C@]23C)O1 (stereo partly drawn) | > 100 µM | –
O=C1/C(=C/c2ccc(O)cc2)COc2ccc(O)c(O)c21 | > 100 µM | 3.69 µM
C=C1C(=O)OC2CC(C)C3C4OC4C(O)C3(C)C(O)C12 (stereo not drawn) | 86.7 µM | –
CC(C)=CC(=O)c1[nH]c2ccccc2c1CC(=O)NCCc1cncn1C | > 100 µM | –
COC1CC(N)C(O)C(C)O1 (stereo not drawn) | > 100 µM | –
CC(=O)O[C@H]1CC[C@@]2(C)C(=C/C(=N/OCCN3CCCC3)[C@H]3[C@@H]4CC[C@H](OC(C)=O)[C@@]4(C)CC[C@@H]32)C1 | > 100 µM | 90.7 µM
CC(=O)NC(C=O)C(O[C@H](C)C(=O)NC(C)C(=O)NC(CCC(N)=O)C(=O)OCc1ccccc1)C(O)C(O)COC(=O)CCNc1c2ccccc2nc2cccc([N+](=O)[O-])c12 (stereo partly drawn) | 9.97 µM | –
Cn1c(=O)c2c(nc3sc4ccccc4c(=O)n32)n(C)c1=O | > 100 µM | –
